Experimental data reported in the supplement of paper PMC3334620.
The full ranking holds about 33,000 sequences; the median of “E-score (-0.5 to 0.5)” is about -0.017, and the highest 2% start at about 0.3. This is one part of the list.

The sequences below were run against T1, Sut1 (UniProt P53032) (assay: PBM E-score (8-mer binding enrichment) (E-score (-0.5 to 0.5)); higher = stronger / more preferred TF binding; most listed sequences are background and not binding sites). Conditions: protein concentration: 200 nM; construct: GST-full length.
T1 sequence: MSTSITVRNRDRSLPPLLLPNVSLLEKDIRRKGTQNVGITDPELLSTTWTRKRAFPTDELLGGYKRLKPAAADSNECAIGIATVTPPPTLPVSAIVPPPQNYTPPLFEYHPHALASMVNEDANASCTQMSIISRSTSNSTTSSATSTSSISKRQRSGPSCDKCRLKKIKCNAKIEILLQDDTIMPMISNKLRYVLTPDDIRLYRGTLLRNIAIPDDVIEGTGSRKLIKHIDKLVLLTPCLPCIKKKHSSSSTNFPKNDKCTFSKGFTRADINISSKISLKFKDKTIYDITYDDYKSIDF
Experimental: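 Universal 'all 10-mer' protein binding microarrays (Agilent AMADID 015681) probed with GST-tagged S. cerevisiae TFs (full-length or DBD) made by in vitro transcription/translation (PURExpress), about 100-200 nM. Bound TF was detected with fluorescent anti-GST. Each ungapped 8-mer (which stands for itself and its reverse complement) is scored by the PBM enrichment score (E-score), a modified Wilcoxon-Mann-Whitney statistic from -0.5 to +0.5, computed with the Universal PBM Analysis Suite. Scale: above 0.35 generally sequence-specific binding.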

Row | Sequence | PBM E-score
1 | GCACTGCC | -0.0548
2 | CATTTCTC | 0.198
3 | AACCCCCA | -0.38
4 | AGAGTGAA | 0.0327
5 | AGAGGCGC | -0.201
6 | ACGACCAC | 0.0155
7 | ACGCCCCT | -0.31
8 | GGCTAGAA | -0.0641
9 | ACGTTCCT | -0.122
10 | CTAACAAG | -0.0947
11 | GGAATACA | 0.157
12 | ACCAAGAG | -0.181
13 | CGGCGCCC | -0.146
14 | CGGCTCTC | -0.0619
15 | ATCGGGGA | -0.00797
16 | AGCGGATA | 0.033
17 | GAGCTCAA | 0.118
18 | CTTTGGGA | 0.0861
19 | AGGATCCT | -0.0676
20 | CTGTACAG | -0.0613
21 | CCCCACAA | -0.154
22 | ATGCTTGC | -0.0788

Row | Sequence | PBM E-score
23 | ACATTACG | 0.113
24 | CGAAGCTA | -0.0647
25 | GCAACAAA | 0.152
26 | CGCCTCTA | -0.128
27 | CCGACAGA | 0.172
28 | GAACGCCC | -0.0493
29 | ACTGGAAG | -0.00568
30 | GCCTAAGC | -0.168
31 | ATGTGATA | 0.0582
32 | AATTACGT | 0.118
33 | AATTTGGC | 0.0804
34 | ACGAGCGC | -0.105
35 | ATCCCCCA | -0.366
36 | CAGCAGTA | -0.127
37 | GCATTACC | -0.0192
38 | CAGCTCTC | -0.108
39 | AAATCTTG | 0.0105
40 | TAGGACTA | 0.0501
41 | AAGACGGG | -0.0207
42 | AGACGGAC | 0.129
43 | GACCGTAA | -0.0628
44 | TAGCATAA | 0.0326

Row | Sequence | PBM E-score
45 | CACAATAG | -0.024
46 | GGCCGGAA | 0.0761
47 | AACGTCGA | 0.0935
48 | CAAACGTG | -0.0235
49 | ACATATGG | 0.0306
50 | CTACAACC | -0.0138
51 | GGCGCAGA | -0.282
52 | CTCGCTTC | 0.0401
53 | ACGGTAGC | -0.0845
54 | AAGTGCGG | 0.0614
55 | CCATTGTC | 0.154
56 | ACATGTTC | -0.0202
57 | GCCAGTAA | -0.0168
58 | ACAATAGA | 0.0251
59 | AGCCGTAG | 0.0346
60 | ATTGGGGG | -0.229
61 | GGCCGGCA | 0.00533
62 | TGACCACA | -0.0296
63 | ATTCCAAA | 0.0401
64 | CGATAGAG | -0.145
65 | CGCACTCA | -0.0581
66 | ACTTCTAG | -0.208

Row | Sequence | PBM E-score
67 | AAACATAG | -0.136
68 | GAGGCCGA | -0.179
69 | CGTCAGGC | -0.212
70 | CTCCCACC | -0.34
71 | CGTGCTCA | -0.0244
72 | CCACGACG | -0.146
73 | GATGCCAA | -0.177
74 | CGTCTAGA | -0.0457
75 | ACTTTATG | 0.175
76 | GCGTACGA | 0.0735
77 | TAATAGGA | 0.144
78 | AATTGTGC | 0.113
79 | CGGCCGCC | -0.05
80 | CCTATCGA | -0.0541
81 | ATAAGTAT | 0.19
82 | CCGCTCCC | -0.299
83 | AGACTCAC | -0.09
84 | ATATCTAG | 0.0278
85 | CAGGTTAG | -0.082
86 | CTTCGTTA | 0.0191
